The supplement of paper PMC10369915
The other results are listed elsewhere or left out. Cut-off read from the data, not from the text of the source: active = 3.2 or more and inactive = the rest. Most of these values are background signal.

B1: ACTN4_Y265 (peptide)
chain: YVSSFYHAFSG
B2: ACTN4_Y265_S262F (peptide)
chain: YVFSFYHAFSG
B3: ACTN4_Y265_S262F_YF (peptide)
chain: FVFSFYHAFSG
B4: ACVRL1_Y375_R374W (peptide)
chain: VGTKWYMAPEV
B5: ACVRL1_Y421 (peptide)
chain: GIVEDYRPPFY
B6: ACVRL1_Y421_F425V (peptide)
chain: GIVEDYRPPVY
B7: ACVRL1_Y421_G416S_YF (peptide)
chain: SIVEDYRPPFF
B8: ACVRL1_Y421_I417F_YF (peptide)
chain: GFVEDYRPPFF
B9: ACVRL1_Y421_P424T_YF (peptide)
chain: GIVEDYRPTFF

The binders below were run against SHP2 C-SH2 domain E139D (assay: enrichment score (SH2-bound / input frequency) (ratio); bacterial display of known human phosphotyrosine sites (pTyr-Var adds point mutants) read by sequencing; higher = stronger binding; tyrosines were phosphorylated by kinases first). Conditions: peptide library: pTyr-Var.
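Note: displayed peptides selected on beads carrying the immobilized SH2 domain, with library peptides lacking any tyrosine serving as negative controls.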

Enrichment score, inactive:
B1 1.74
B2 2.44
B3 2.15
B4 1.34
B5 0.865
B6 0.586
B7 0.941
B8 0.846
B9 0.877

These binders were tested against SHP2 C-SH2 domain wild-type in the same assay as above. Conditions: peptide library: pTyr-Var.

Enrichment score, inactive:
B1 2.08
B2 2.33
B3 2.81
B4 0.941
B5 0.743
B6 0.813
B7 0.758
B8 0.84
B9 0.924

The binders below were run against SHP2 N-SH2 domain L43F in the same assay as above. Conditions: peptide library: pTyr-Var.

Enrichment score, inactive:
B1 1.94
B2 2.13
B3 2.47
B4 1.16
B5 0.749
B6 0.813
B7 1.16
B8 1.17
B9 0.959

What follows are binders tested against SHP2 N-SH2 domain T42A in the same assay as above. Conditions: peptide library: pTyr-Var.

Enrichment score, inactive:
B1 1.82
B2 2.02
B3 2.49
B4 1.05
B5 0.715
B6 0.593
B7 0.697
B8 1.02
B9 0.858

Each binder was assayed against SHP2 N-SH2 domain T52S in the same assay as above. Conditions: peptide library: pTyr-Var.

Enrichment score, inactive:
B1 2.04
B2 2.29
B3 2.36
B4 1.32
B5 0.716
B6 0.991
B7 0.932
B8 1.24
B9 0.97

The binders below were run against SHP2 N-SH2 domain wild-type in the same assay as above. Conditions: peptide library: pTyr-Var.

Enrichment score, inactive:
B1 1.67
B2 2.19
B3 2.67
B4 1.25
B5 0.818
B6 0.973
B7 0.924
B8 1.32
B9 1.04
